From the RNAGym collection of RNA variant scans (doi:10.1093/nar/gkz1192)
Read counts are not given, so values of variants with three or more changes are uncertain.

B1: CPEB3 Ribozyme (parent)
chain: UAACAGGGGGCCACAGCAGAAGCGUUCACGUCGCAGCCCCUGUCAGAUUCUGGUGAAUCUGCGAAUUCUGCUGUAUAUCUC

Variants of: B1
Experiment: self-cleavage, relative activity (ratio to wild type); higher = more cleavage; in vitro, sequencing
Method in brief: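 Relative activity compares each variant's cleaved/total read fraction with that of the unmutated ribozyme. To get these fractions, barcoded CPEB3 ribozyme libraries from rounds of error-prone PCR were transcribed with T7 RNA polymerase for 5 hours at 37°C and then given 15 min of DNase I treatment before EDTA was added. The RNAs were reverse transcribed with template switching and sequenced on Illumina, and DNA sequencing linked barcodes to variants. A minimum of 5 reads applied, and three batches were averaged.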
Work on U1C A35U U51C A64U U78C U80A yielded a self-cleavage of 0.1.
Work on U1C A64U U78C yielded a self-cleavage of 0.13.
For U1C A15G U25C U41C A56G, the self-cleavage was 0.38.
With U1C A3G G30A A35U A64G U74A the self-cleavage was 0.31.
Work on U1C A18G A20G U66C yielded a self-cleavage of 0.36.
U1C A28U G30A U31G U49G U69C gave a self-cleavage of 0.06.
U1C C12U U31C U41C U67A gave a self-cleavage of 0.18.
With U1C C17A A18G A21G U49C A65U U80A the self-cleavage was 0.03.
U1C G7A A35U U54C U58A A77U gave a self-cleavage of 0.05.
For U1C A45G U72C U78C, the self-cleavage was 0.8.
Work on U1C A15G A45U U72C yielded a self-cleavage of 0.21.
In the case of U1C A21G A64U, the self-cleavage is reported as 0.38.
U1C A13U A15U U25A U43A G73U U74C showed a self-cleavage of 0.06.
With U1C A3G A45G the self-cleavage was 0.82.
U1C A18C U26A A45G U54A G70A showed a self-cleavage of 0.08.
U1C A5G A28U U43A A57G G70C showed a self-cleavage of 0.15.
With U1C C27U U41C U48C U69A the self-cleavage was 0.16.
For U1C A28U G33A, the self-cleavage was 0.08.
In the case of U1C A20G U48C U51C U78A, the self-cleavage is reported as 0.07.
Work on U1C A3G A75G yielded a self-cleavage of 0.7.
Work on U1C A18G U25C A28C A47U A64G yielded a self-cleavage of 0.04.
For U1C A20G A45G U54C, the self-cleavage was 0.26.
U1C A18G C32U showed a self-cleavage of 0.08.
U1C C11U A35U gave a self-cleavage of 0.32.
For U1C A21G A47G C59G, the self-cleavage was 0.23.
In the case of U1C A3G U31C U74G, the self-cleavage is reported as 1.2.
U1C A28G U54C gave a self-cleavage of 0.79.
U1C A18G C50G A64G A77U showed a self-cleavage of 0.1.
Work on U1C A5G C17G C39A U41C U69C yielded a self-cleavage of 0.05.
For U1C A13G C38A U41A A47G, the self-cleavage was 0.25.
In the case of U1C C37U U43C, the self-cleavage is reported as 0.09.
U1C A3G A18G C34U U49C gave a self-cleavage of 0.06.
U1C A13U A15G G55U U58C U74A gave a self-cleavage of 0.14.
In the case of U1C A3G A20G U43C U49A, the self-cleavage is reported as 0.08.
Variant U1C A13G C39U U41A U69C has a self-cleavage of 0.05.
For U1C A3U G19A A47G, the self-cleavage was 0.41.
With U1C A21G C38U U48C G55U the self-cleavage was 0.04.
U1C A15G U43A A64G U72A showed a self-cleavage of 0.41.
Variant U1C A5G A18G has a self-cleavage of 0.31.
With U1C A35G U51C A75G the self-cleavage was 1.26.
In the case of U1C A56U U78A, the self-cleavage is reported as 0.32.
With U1C A13U U41C A45U A64G the self-cleavage was 0.27.
U1C A13U A20G C68A showed a self-cleavage of 0.19.
In the case of U1C A5G A35U A65G U66C, the self-cleavage is reported as 0.28.
With U1C A13U U51C A64G U80A the self-cleavage was 0.71.
Variant U1C A35G A45G U74A has a self-cleavage of 1.28.
In the case of U1C G6A A15U C23G U78C, the self-cleavage is reported as 0.04.
With U1C C37A A47G U49A the self-cleavage was 0.06.
U1C C12U A28U U60A U66C U72C A77G showed a self-cleavage of 0.19.
With U1C A13G U48C U54A U60C the self-cleavage was 0.07.
With U1C A18G U51C C59U the self-cleavage was 0.2.
U1C A18G C32A C37A showed a self-cleavage of 0.21.
For U1C A18G A75G U76A, the self-cleavage was 0.72.
For U1C A15G A35U U54C, the self-cleavage was 0.21.
For U1C G6A U41A U43C A45G A47G, the self-cleavage was 0.06.
U1C G6U U41C A56G showed a self-cleavage of 0.1.
U1C G6U C12A U26C U54C gave a self-cleavage of 0.24.
U1C C23G A35U U43G gave a self-cleavage of 0.19.
U1C A3G G46A U48C A56U A64U C71U showed a self-cleavage of 0.03.
Work on U1C C23G U25C U80C yielded a self-cleavage of 0.05.
Work on U1C A15G A18G A77G yielded a self-cleavage of 0.51.
Variant U1C C32U A47G has a self-cleavage of 0.56.
U1C A5G U26C U48C U72C showed a self-cleavage of 0.09.
U1C A5U U58C showed a self-cleavage of 0.65.
With U1C A13G A21G U31C U43C U74A the self-cleavage was 0.44.
With U1C G6A A35C U51C A64G the self-cleavage was 0.06.
For U1C A3G U26A G52U A57G U80C, the self-cleavage was 0.87.
For U1C A45U U54C U58A, the self-cleavage was 0.09.
For U1C A21G A57G U80C, the self-cleavage was 0.64.
Variant U1C A13G U66C has a self-cleavage of 0.21.
U1C C12U A15U A20G C37U U60A gave a self-cleavage of 0.03.
U1C C14A A21G U43C A65G showed a self-cleavage of 0.26.
Work on U1C A3G A18U A20G yielded a self-cleavage of 0.14.
Work on U1C A13U A45G yielded a self-cleavage of 1.06.
For U1C A13U A35G U58C, the self-cleavage was 1.2.
For U1C A13G U26C U80A, the self-cleavage was 0.27.
In the case of U1C A13G A45U U76C, the self-cleavage is reported as 0.43.
U1C A3G A5U G10A A15G A35G U54A gave a self-cleavage of 0.59.
Work on U1C A18C C37A U60C U72C yielded a self-cleavage of 0.08.
In the case of U1C A3G G55C, the self-cleavage is reported as 1.01.
For U1C C14G U54C U60C U66C, the self-cleavage was 0.17.
Variant U1C A18U A20G U60A has a self-cleavage of 0.23.
In the case of U1C C4A U26C A77U, the self-cleavage is reported as 0.9.
